{
  "source": "PubChem BioAssay AID1345082",
  "about": "(National Center for Advancing Translational Sciences (NCATS), 2018)",
  "note": "Screen size: about 94,000 compounds; about 4,000 (4.3%) were called active. Inconclusive results, whose numbers are uncertain, are shown with a selection of clear calls. Calls follow the shape of the dose curve; as a rule, active = well fitted inhibition curve with a large enough effect; inconclusive = small, poorly fitted or top-dose-only effect; inactive = no such curve, though single readings can be large or run the other way. Where the call is inconclusive, the potency comes from a doubtful curve fit. % is scaled to controls: 0 for no effect and ±100 for the full control effect; potency is read from the fitted curve at half-maximal effect; tags tell the direction and shape of the fitted curve.",
  "data": [
    {"assay": "Cytotoxic Profiling in NIH 3T3 Cell Line of Diverse Libraries Using Quantitative High-Throughput Screening; also: nearly all actives have a fitted effect of over 55% in size", "settings": "NIH 3T3 viability, CellTiter-Glo ATP luminescence, 48-72 h; activity change, negative = cytotoxicity: at 96.7 µM (top of the series); series mostly up to 96.7 µM", "method_in_brief": "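Cytotoxicity was measured by CellTiter-Glo ATP luminescence after 48 or 72 h compound exposure at 37 °C. Mouse NIH 3T3 fibroblasts were seeded at 400 cells/well and dosed by 23 nL pin transfer.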", "values": [
      {"smiles": "Cc1noc(C)c1-c1cc2cc(C(C)C)oc2c(N(C)CCN(C)C)n1", "Potency": "active: 25.1 µM"},
      {"smiles": "Cc1cc(=O)n(CC(=O)Nc2ccc(C)c(Cl)c2)c(N2CCN(c3ccccc3)CC2)n1", "Potency": "inconclusive: 50.1 µM [inhibitor, partial curve, poor fit]"},
      {"smiles": "O=C(C1CC1)N1CCN(c2nccc(Nc3ccccc3Cl)n2)CC1", "Potency": "active: 22.4 µM"},
      {"smiles": "CCN1C(=O)CCN(Cc2cn(C)c3ccccc23)CC12CCOCC2", "Potency": "inconclusive: 70.8 µM [inhibitor, single point]"},
      {"smiles": "COc1ccccc1-c1cccc(C(=O)N2CCC[C@H]2C(=O)NCc2cccc(F)c2)c1", "activity change, negative = cytotoxicity": "inactive: -17.5%"},
      {"smiles": "COC1CN(c2cccc(F)c2)C12CCN(CC1CCCCC1)CC2", "note": "(stereo not drawn)", "Potency": "inconclusive: 44.7 µM [inhibitor, partial curve, poor fit]"},
      {"smiles": "CN1CCN(c2ccc(-c3cc4c(ccn4C)c(C(=O)NCCC(N)=O)n3)cc2)CC1", "Potency": "active: 79.4 µM"},
      {"smiles": "NCC(C1CCCCC1)N1CCOCC1", "note": "(stereo not drawn)", "activity change, negative = cytotoxicity": "inactive: -6.42% [at 174 µM]"},
      {"smiles": "COc1ccc(-c2ccnc(-c3nnc(C)n3C3CCN(C)CC3)c2)cc1OC", "Potency": "inconclusive: 79.4 µM [inhibitor, partial curve]"},
      {"smiles": "CC(C)c1nc2c(c(-c3ccc(Cl)cc3)n1)CCN([S+](=O)([O-])c1cccc(C(F)(F)F)c1)CC2", "activity change, negative = cytotoxicity": "inactive: -0.765%"},
      {"smiles": "O=c1[nH]c(C2CCCN([S+](=O)([O-])c3cccc(C(F)(F)F)c3)C2)nn1-c1ccccn1", "note": "(stereo not drawn)", "Potency": "inconclusive: 35.5 µM [inhibitor, partial curve, poor fit]"},
      {"smiles": "COc1ccc(CC(=O)N2CCc3nc(-c4ccc(Cl)cc4)nc(-c4ccccc4)c3C2)cc1", "Potency": "inconclusive: 50.1 µM [inhibitor, partial curve, poor fit]"},
      {"smiles": "COc1ccc(-c2cc(N3CCCN(C(=O)c4ccccc4OC)CC3)n[nH]2)cc1", "activity change, negative = cytotoxicity": "inactive: -22.5%"},
      {"smiles": "Cn1nccc1C(=O)N1CCC(Oc2ccccc2-c2nc(-c3ccccc3)no2)C1", "note": "(stereo not drawn)", "Potency": "inconclusive: 50.1 µM [inhibitor, partial curve, poor fit]"},
      {"smiles": "COc1ccc2c(C)c(C(=O)N3CC(Oc4c(C)cccc4C)C3)oc2c1", "activity change, negative = cytotoxicity": "inactive: -18.9%"},
      {"smiles": "Cc1noc(-c2ccc3c(c2)OCO3)c1C(=O)NCCCCc1ccccc1", "Potency": "inconclusive: 44.7 µM [inhibitor, partial curve, poor fit]"},
      {"smiles": "CCc1noc(-c2cn(C3CCN(C(=O)c4cccc(Br)c4)C3)nn2)n1", "note": "(stereo not drawn)", "Potency": "inconclusive: 44.7 µM [inhibitor, partial curve]"},
      {"smiles": "CC(=O)NCCNC(=O)C[C@@H]1c2nc(NC(=O)C3CCCCC3)sc2C[C@@H]2[C@](C)(CO)[C@H](O)CC[C@]21C", "activity change, negative = cytotoxicity": "inactive: -9.57%"},
      {"smiles": "CSc1cccc(NC(=O)Cn2ccn3nc(-c4ccc(F)cc4)c(CO)c3c2=O)c1", "Potency": "inconclusive: 50.1 µM [inhibitor, partial curve, poor fit]"},
      {"smiles": "CC(C)CN1C(=O)CO[C@H](c2ccc(NC(=O)c3ccc4c(c3)OCO4)cc2)[C@H]1CO", "Potency": "inconclusive: 50.1 µM [inhibitor, full curve]"},
      {"smiles": "CNc1cc(C)nc(N2CCN(Cc3cccc(OC)c3)C(CCO)C2)n1", "note": "(stereo not drawn)", "Potency": "inconclusive: 63.1 µM [inhibitor, partial curve, poor fit]"},
      {"smiles": "CC(C)Oc1cccc(-c2nnc(CCC(=O)N3CCC(Cc4ccccc4)CC3)c(=O)[nH]2)c1", "Potency": "inconclusive: 50.1 µM [inhibitor, partial curve, poor fit]"},
      {"smiles": "CC1=C[C@@H](CNC(=O)CC2(CC(=O)O)CCCC2)[C@H](C(C)C)C[C@H]1Cc1nc2ccccc2n1C", "Potency": "inconclusive: 79.4 µM [inhibitor, partial curve, poor fit]"},
      {"smiles": "Cc1noc(C)c1-c1cc2cc(CO)oc2c(NC2CCN(C)CC2)n1", "Potency": "active: 44.7 µM"},
      {"smiles": "CC(C)CCN1CCCC2(COc3ccccc3C(=O)N2)C1", "note": "(stereo not drawn)", "Potency": "inconclusive: 112 µM [inhibitor, single point]"},
      {"smiles": "CC(C)CS(=O)(=O)c1ncc(CN(C)Cc2cnn(C)c2)n1Cc1ccccc1", "Potency": "inconclusive: 20 µM [inhibitor, full curve, poor fit]"},
      {"smiles": "COc1cccc(-c2n[nH]c3c2CC(=O)N(Cc2ccccc2F)C3)c1OC", "Potency": "inconclusive: 89.1 µM [inhibitor, partial curve, poor fit]"},
      {"smiles": "CCN1C(=O)CCN(S(=O)(=O)c2cccc3cccnc23)CC12CCOCC2", "activity change, negative = cytotoxicity": "inactive: 3.24%"},
      {"smiles": "O=S(=O)(c1ccccc1)N1CCCC(c2nc(CCOCC3CCCC3)no2)C1", "note": "(stereo not drawn)", "activity change, negative = cytotoxicity": "inactive: -25.6%"},
      {"smiles": "O=C(Cc1ccccc1Cl)N1CCC[C@H]1c1nc(-c2ccc(F)cc2)no1", "Potency": "inconclusive: 70.8 µM [inhibitor, partial curve, poor fit]"},
      {"smiles": "COCCCNC(=O)c1ccccc1-c1ccc(OC)nn1", "activity change, negative = cytotoxicity": "inactive: -0.983% [at 138 µM]"},
      {"smiles": "COCCOc1ccnc(-c2noc([C@@H]3CCCN3Cc3ccc4c(c3)OCO4)n2)c1", "Potency": "inconclusive: 89.1 µM [inhibitor, partial curve, poor fit]"},
      {"smiles": "CCCn1ncc(CN2CCC(Cc3cccc(C(F)(F)F)c3)(C(=O)OCC)CC2)c1C", "Potency": "inconclusive: 35.5 µM [inhibitor, partial curve, poor fit]"},
      {"smiles": "CC1(C)[C@H]2CC[C@@H](CNC(=O)c3cncc(Br)c3)[C@@H]1C2", "Potency": "inconclusive: 39.8 µM [inhibitor, partial curve, poor fit]"},
      {"smiles": "O=[N+]([O-])c1cccc(-c2noc([C@@H]3C[C@@H](O)CN3C3CCOCC3)n2)c1", "Potency": "inconclusive: 100 µM [inhibitor, partial curve, poor fit]"},
      {"smiles": "CC(C)c1ccc(CN2CCCC(O)(CNCCN3CCNCC3)C2=O)cc1", "note": "(stereo not drawn)", "Potency": "inconclusive: 56.2 µM [inhibitor, partial curve, poor fit]"},
      {"smiles": "COc1ncccc1-c1cn(C)c(=O)n2cc(CN3CC[S+](=O)([O-])CC3)nc12", "Potency": "inconclusive: 39.8 µM [inhibitor, partial curve]"},
      {"smiles": "Cc1ccc(C)c(N2CCN(C(=O)CCc3conc3-c3ccccc3)CC2)c1", "Potency": "inconclusive: 70.8 µM [inhibitor, single point]"},
      {"smiles": "CCCCC1C=CCN1C(=O)c1cc(COc2ccc(F)cc2F)[nH]n1", "note": "(stereo not drawn)", "Potency": "inconclusive: 44.7 µM [inhibitor, partial curve, poor fit]"},
      {"smiles": "CCC(CC)NC(=O)CCC1CCN(C(=O)c2ccccc2Cl)CC1", "activity change, negative = cytotoxicity": "inactive: -2.07%"},
      {"smiles": "Cc1noc(C)c1C(=O)N1CCC2(CC1)CN(C(=O)Cc1cccc(Cl)c1)CCO2", "Potency": "inconclusive: 50.1 µM [inhibitor, partial curve, poor fit]"},
      {"smiles": "O=C(c1cccc(F)c1)N1CCC2(CC1)N=C(c1ccc(Br)cc1)NO2", "Potency": "inconclusive: 50.1 µM [inhibitor, partial curve, poor fit]"},
      {"smiles": "Cc1cccc(CN2CCCC3(Cc4ccccc4CNC3=O)C2)c1", "note": "(stereo not drawn)", "activity change, negative = cytotoxicity": "inactive: -2.14%"},
      {"smiles": "CCOC(=O)C1CCN(C(=O)c2ccc3oc(-c4cccc(C)n4)nc3c2)CC1", "activity change, negative = cytotoxicity": "inactive: -10.9% [at 138 µM]"},
      {"smiles": "CCc1cccc(NC(=O)C2Cn3cccc3C(=O)N2)c1", "note": "(stereo not drawn)", "activity change, negative = cytotoxicity": "inactive: -17.3%"},
      {"smiles": "COCCNC(=O)Cc1c[nH]c2ncc(-c3ccc(OC)cc3)cc12", "Potency": "active: 22.4 µM"},
      {"smiles": "COc1cccc(C(=O)N(C)Cc2cccc(C(F)(F)F)c2)c1", "Potency": "inconclusive: 56.2 µM [inhibitor, partial curve, poor fit]"},
      {"smiles": "Cc1nn(-c2ccc(C(C)(C)C)cc2)c(C)c1[C@@H]1C=C[C@@H](NC(=O)c2ccco2)C1", "Potency": "active: 35.5 µM"},
      {"smiles": "OCc1cccc(-c2ccc3ncc(Nc4ccc(OCCN5CCCC5)cc4)n3n2)c1", "Potency": "inconclusive: 56.2 µM [inhibitor, partial curve, poor fit]"},
      {"smiles": "O=C(c1ccccc1)N1CCCCC1c1nc(-c2ccccc2)n[nH]1", "note": "(stereo not drawn)", "Potency": "inconclusive: 70.8 µM [inhibitor, single point]"},
      {"smiles": "COCC1CN(Cc2ccc(C(F)(F)F)cc2)CC12CCNCC2", "note": "(stereo not drawn)", "Potency": "inconclusive: 50.1 µM [inhibitor, single point]"},
      {"smiles": "COc1ccc(CNC(=O)[C@@H](C)C2CC[C@@]3(C)CC[C@H](NC(=O)c4cncnc4)[C@@H](C)[C@@H]3[C@H]2O)cc1OC", "note": "(stereo partly drawn)", "activity change, negative = cytotoxicity": "inactive: -28.6%"},
      {"smiles": "CCNC(=O)N[C@H]1C[C@@H](Cc2cc(CC(C)C)on2)C1(C)C", "Potency": "inconclusive: 100 µM [inhibitor, single point]"},
      {"smiles": "CCN1C(=O)C2(CCN(S(=O)(=O)c3cccc(OC)c3)CC2)c2ccccc21", "Potency": "inconclusive: 44.7 µM [inhibitor, partial curve, poor fit]"},
      {"smiles": "O=C(c1ccc(Cl)cc1)N1CCN(c2nccc(Nc3ccccc3F)n2)CC1", "Potency": "inconclusive: 31.6 µM [inhibitor, partial curve]"},
      {"smiles": "Cc1c(CN2CCCC(CNC(=O)c3cccc4ccccc34)C2)[nH]c2ccccc12", "note": "(stereo not drawn)", "Potency": "active: 20 µM"},
      {"smiles": "CCOC(=O)C1=C(C)N=C2SC=C(CC(=O)N3CCCC3)N2C1c1ccc(Cl)cc1", "note": "(stereo not drawn)", "Potency": "inconclusive: 63.1 µM [inhibitor, partial curve, poor fit]"},
      {"smiles": "Cc1ccc(-n2nc(C)c([C@@H]3C=C[C@@H](NS(=O)(=O)c4cccs4)C3)c2C)cc1Cl", "Potency": "active: 35.5 µM"},
      {"smiles": "Cn1ncc2c(C(=O)NCCc3ccc(Cl)cc3)cc(-c3ccsc3)nc21", "Potency": "inconclusive: 31.6 µM [inhibitor, partial curve, poor fit]"},
      {"smiles": "COc1ccc(OC)c(NC(=O)Cn2c(-c3ccc(F)cc3)nc(C)c(CCO)c2=O)c1", "Potency": "inconclusive: 39.8 µM [inhibitor, partial curve]"},
      {"smiles": "CCOCCN1C(=O)COC[C@@H]1[C@H](O)c1ccc(NC(=O)c2ccc(OC)cc2)cc1", "activity change, negative = cytotoxicity": "inactive: -32.7% [at 174 µM]"},
      {"smiles": "CC(C)(C)NC(=O)NCc1nnc2n1C(C(=O)NCc1ccc(F)cc1)CC2", "note": "(stereo not drawn)", "activity change, negative = cytotoxicity": "inactive: -21.6%"},
      {"smiles": "CN1C(=O)c2cccn2CC1CNC(=O)c1cn[nH]c1-c1ccc(F)cc1", "note": "(stereo not drawn)", "outcome": "inactive"}
    ]}
  ]
}
